Measured values published in PubChem BioAssay AID1508642 (National Center for Advancing Translational Sciences (NCATS), 2021).
Screen size: about 43,000 compounds; about 200 (0.47%) were called active. The inconclusive results got no clear call from the source; some entries with a clear call stand among them for comparison. The call rests on the fitted dose curve; in most records, active means well fitted cell-killing curve with a large enough effect; inconclusive means small, poorly fitted or top-dose-only effect, or effect the other way; inactive means flat fitted curve, though single readings scatter. A potency beside an inconclusive call is a rough fit, not a confirmed value.

Assay: Cell viability qHTS assay in S16 Pmp22-F2sN cells; further: nearly all actives have a fitted effect of over 65% in size
Conditions: S16 Pmp22-F2sN Schwann cells (luciferase reporters placed in the Pmp22 gene) viability, CellTiter-Glo, 24 h; activity change, negative = cytotoxicity: at 57.5 µM (top of the series)
Outline: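 S16 Schwann cells carrying the Pmp22-F2sN reporter, seeded in 1536-well format, were exposed to library compounds for 24 h at 37C. Viability was read as CellTiter-Glo luminescence after 15 min at room temperature.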
On the % scale 0 is the no-effect control and ±100 the full control effect; potency means the concentration at half of the fitted maximal effect; tags describe the fitted curve by direction and shape.

Row | SMILES | Potency | activity change, negative = cytotoxicity
1 | CCc1ccccc1NC(=O)Nc1cc(C(=O)NCc2cccc(F)c2)ccc1N1CCCC1 | inconclusive: 22.4 µM [cytotoxic, single point] | –
2 | Cc1ccc(C(=O)Nc2ccccc2)cc1S(=O)(=O)Nc1ccc(Br)cc1 | – | inactive: -0.398%
3 | COc1ccc(Cl)cc1NC(=O)CSc1nc2ccccc2c2nc(-c3ccccc3)nn12 | inconclusive: 2.24 µM [cytotoxic, partial curve, poor fit] | –
4 | Cc1cccc(OCc2nc(CC(=O)Nc3ccc(C)cc3C)cs2)c1 | – | inactive: 13.4%
5 | O=C(Nc1ccccc1)N(Cc1c[nH]c2ccccc12)C1CCCCCC1 | inconclusive: 7.08 µM [rising, single point] | –
6 | CC(=O)c1cccc(NS(=O)(=O)c2cc(-c3onc(C)c3C)ccc2C)c1 | inconclusive: 39.8 µM [cytotoxic, single point] | –
7 | COc1cc(Cl)c(NC(=O)c2cc(S(=O)(=O)N3CCCCC3)c[nH]2)c(OC)c1 | inconclusive: 31.6 µM [cytotoxic, single point] | –
8 | CCOC(=O)c1c(S(=O)(=O)N2CCCC(C(=O)NCc3ccccc3Cl)C2)c(C)n(C)c1C (configuration not stated) | inconclusive: 22.4 µM [cytotoxic, partial curve, poor fit] | –
9 | COc1ccc(C(=O)N2CCC(c3nc4ccccc4s3)CC2)cc1Cl | – | inactive: -1.9%
10 | COc1ccccc1NC(=O)CSc1nnc(NC(=O)NC2CCCCC2)s1 | – | inactive: 6.66%
11 | COc1ccccc1/C=C/c1nc(C#N)c(N2CCN(C)CC2)o1 | – | inactive: 6.18%
12 | CCc1ccccc1NC(=O)Cn1c(=O)n(CCCCCC(=O)NCc2ccc(C)cc2)c(=O)c2sccc21 | inconclusive: 39.8 µM [cytotoxic, single point] | –
13 | COc1ccccc1NC(=O)CSc1nnc(NC(=O)Nc2ccc(C)cc2)s1 | inconclusive: 39.8 µM [cytotoxic, single point] | –
14 | Cc1ccc(S(=O)(=O)N2CCCc3cc(NS(=O)(=O)c4cccc(Cl)c4)ccc32)cc1 | inconclusive: 28.2 µM [cytotoxic, single point] | –
15 | CCCCN1C(=O)c2[nH]nc(-c3ccccc3O)c2C1c1ccc(OCc2ccccc2)cc1 (configuration not stated) | inconclusive: 39.8 µM [cytotoxic, single point] | –
16 | COc1ccc(S(=O)(=O)NCCc2csc3nc(-c4cccc(C)c4)nn23)cc1F | inconclusive: 39.8 µM [cytotoxic, single point] | –
17 | Cc1ccc(CCNC(=O)c2ccc3c(c2)nc2n3CCCCC2)cc1 | – | inactive: 24.1%
18 | CC(=O)c1ccc(N2CCN(C(=O)CCC(=O)Nc3ccc4nc(N5CCCCC5)cc(C)c4c3)CC2)cc1 | – | inactive: -10.4%
19 | O=C(CCS(=O)(=O)c1nc(-c2cccs2)cc(C(F)(F)F)n1)Nc1cc(Br)ccc1O | active: 10 µM | –
20 | CCn1c(=O)c2sccc2n2c(CCCC(=O)N3CCN(c4cccc(Cl)c4)CC3)nnc12 | inconclusive: 31.6 µM [cytotoxic, single point] | –
21 | Cc1ccc(Nc2sc(C(=O)c3ccccc3)c(N)c2C(=O)Nc2ccc(Cl)cc2)cc1 | inconclusive: 20 µM [cytotoxic, partial curve] | –

Row | SMILES | Potency | activity change, negative = cytotoxicity
22 | O=C(NCc1cccnc1)C(=O)NCC(c1cccnc1)N1CCN(c2ccc(F)cc2)CC1 (configuration not stated) | – | inactive: 5.25%
23 | O=C(Nc1nc2ccc(Cl)cc2s1)c1cc(=O)c2ccccc2o1 | inconclusive: 7.08 µM [cytotoxic, single point] | –
24 | COc1ccc2c(c1)c(CC(=O)Nc1ccc(C(C)=O)cc1)c(C)n2C(=O)c1ccc(Cl)cc1 | inconclusive: 25.1 µM [cytotoxic, partial curve, poor fit] | –
25 | COc1cccc(C(=O)NC(=NCCc2c[nH]c3ccc(OC)cc23)Nc2nc(C)cc(C)n2)c1 | inconclusive: 39.8 µM [cytotoxic, single point] | –
26 | Cc1ccc(NC(=O)c2cnc(SCC(=O)N3CCOCC3)n(C)c2=O)cc1C | inconclusive: 39.8 µM [cytotoxic, single point] | –
27 | O=C(CN1CCCN(S(=O)(=O)c2ccc(Br)cc2)CC1)Nc1cccc(C(F)(F)F)c1 | inconclusive: 39.8 µM [cytotoxic, single point] | –
28 | CCCc1nnc(NC(=O)Cc2coc3ccc(C(C)C)cc23)s1 | – | inactive: -5.74%
29 | COC(=O)CN1C(=O)CSc2ccc(S(=O)(=O)Nc3ccc(C(C)=O)cc3)cc21 | inconclusive: 5.01 µM [rising, full curve, poor fit] | –
30 | CC(C)CCNS(=O)(=O)c1ccc(N2CCCCS2(=O)=O)cc1 | inconclusive: 2.82 µM [cytotoxic, full curve, poor fit] | –
31 | CN(C(=O)CSc1nc(C2CCCC2)nc2c1c(=O)n(C)c(=O)n2C)c1ccccc1 | inconclusive: 31.6 µM [cytotoxic, single point] | –
32 | Cc1noc(/C=C/c2ccco2)c1S(=O)(=O)N1CCC(C(=O)Nc2ccc(F)cc2F)CC1 | – | inactive: 1.33%
33 | COc1ccc(CCNC(=O)CCc2c(C)nc3cc(-c4ccccc4)nn3c2C)cc1OC | inconclusive: 39.8 µM [cytotoxic, single point] | –
34 | Cc1ccc(-c2c(C(=O)N3CCN(c4cccc(C)c4C)CC3)oc(=O)c3ccccc23)cc1 | – | inactive: -1.26%
35 | Cc1ccc(NC(=O)C2CCCN(S(=O)(=O)c3cccc4cccnc34)C2)cc1Cl (configuration not stated) | inconclusive: 39.8 µM [cytotoxic, single point] | –
36 | Cc1ccc(C(=O)Nc2cccc(C(=O)OCc3cc(=O)n4c5c(sc4n3)CCCC5)c2)cc1 | inconclusive: 39.8 µM [cytotoxic, single point] | –
37 | Cc1ccc(C2CCN(C(=O)c3cnn(-c4ccccc4Cl)c3C3CCN(C(=O)OC(C)(C)C)CC3)C2)cc1 (configuration not stated) | inconclusive: 39.8 µM [cytotoxic, single point] | –
38 | Cc1ccc(C)c(N2CCN(C(=O)c3cccc(-n4c(C)nc5cccnc54)c3)CC2)c1 | inconclusive: 39.8 µM [cytotoxic, single point] | –
39 | CCCCNc1sc(S(=O)(=O)CC)nc1S(=O)(=O)c1ccc(C)cc1 | – | inactive: 1.54%
40 | Cc1cccc(C(=O)Nc2ccc(-c3nc4ccccc4s3)c(C)c2)c1 | inconclusive: 22.4 µM [cytotoxic, partial curve, poor fit] | –
41 | COc1ccc(-n2c(SCc3nc(-c4ccc(C)cc4)no3)nnc2-c2ccncc2)cc1 | – | inactive: -9.64%
42 | COCCCN1CCc2nc(SCC(=O)Nc3ccc(C)c(Cl)c3)[nH]c(=O)c2C1 | inconclusive: 31.6 µM [cytotoxic, single point] | –

Row | SMILES | Potency | activity change, negative = cytotoxicity
43 | Cc1cccc(NC(=O)C2CCC(CNS(=O)(=O)c3ccc4c(c3)CCCC(=O)N4)CC2)c1C (configuration not stated) | inconclusive: 39.8 µM [cytotoxic, single point] | –
44 | COc1cc(OC)c(NC(=O)COc2ccccc2-c2nnc(-c3ccccc3)o2)cc1Cl | inconclusive: 1 µM [cytotoxic, full curve, poor fit] | –
45 | Cc1ccc(Nc2cc(C(=O)NC3CCCC3)c3ccccc3n2)cc1C | – | inactive: -8.28%
46 | CCOc1ccc(CCNC(=O)C2CCCN(c3nnc(C)c4c(C)n(-c5ccccc5)nc34)C2)cc1 (configuration not stated) | inconclusive: 39.8 µM [cytotoxic, single point] | –
47 | CSc1ccc(CCNC(=O)C(C)n2nc(C)c3c(C)n(-c4ccccc4)nc3c2=O)cc1 (configuration not stated) | inconclusive: 35.5 µM [cytotoxic, single point] | –
48 | Cn1ncc(C(=O)N2CCN(c3ccccc3)CC2)c1C1CCN(C(=O)OC(C)(C)C)CC1 | – | inactive: -1.46%
49 | Cc1cc(F)ccc1NC(=O)C1CCCN(c2nnc(-n3c(C)ccc3C)s2)C1 (configuration not stated) | – | inactive: 1.07%
50 | Cc1c(Cl)cccc1NC(=O)N1CCN(Cc2cc(=O)n3nc(-c4ccccc4F)sc3n2)CC1 | inconclusive: 1.26 µM [cytotoxic, full curve, poor fit] | –
51 | COc1cccc(CNC(=O)Cn2c(=O)c3cccn3c3ccc(F)cc32)c1OC | – | inactive: -1.88%
52 | Cc1ccccc1CNC(=O)C(=O)NCC(c1ccco1)S(=O)(=O)c1ccc(F)cc1 (configuration not stated) | inconclusive: 14.1 µM [cytotoxic, partial curve, poor fit] | –
53 | COc1ccc(NS(=O)(=O)c2ccc3c(c2)CCN3C(=O)C2CC2)cc1OC | inconclusive: 5.62 µM [cytotoxic, partial curve] | –
54 | Cc1ccc2c(CNCc3cccs3)c(C(=O)O)n(Cc3ccc(F)cc3)c2c1 | inconclusive: 20 µM [cytotoxic, single point] | –
55 | Cc1ccc(NC(=O)Nc2ccc3snnc3c2)cc1C | inconclusive: 35.5 µM [cytotoxic, partial curve, poor fit] | –
56 | Cc1cccc(OCC(=O)Nc2ccc(Cl)c(-c3nc4ncccc4o3)c2)c1C | inconclusive: 39.8 µM [rising, partial curve, poor fit] | –
57 | CCN(CC)CCCNC(=O)c1ccc(-c2nc(CN3CCc4ccccc43)c(C)o2)cc1 | inconclusive: 39.8 µM [cytotoxic, single point] | –
58 | CCOc1ccc(C(=O)Nc2ccc3nc(SCCOc4ccccc4)sc3c2)cc1 | – | inactive: 10.3%
59 | Cc1cc2ccccc2n1-c1ccc(C(=O)N2CCC(C(=O)NCc3ccc(Cl)cc3)CC2)s1 | inconclusive: 5.62 µM [cytotoxic, full curve, poor fit] | –
60 | Cc1cccc(CCNC(=O)c2ccc3c(c2)N(Cc2ccccc2F)C(=O)c2ccccc2S3)c1 | inconclusive: 39.8 µM [cytotoxic, single point] | –
61 | CCC(C(=O)Nc1cc(OC)cc(OC)c1)n1nc(-c2ccc(C)c(C)c2)ccc1=O (configuration not stated) | inconclusive: 39.8 µM [cytotoxic, single point] | –
62 | COc1cc(C2CC(=O)c3c([nH]c(C(=O)OC4CCCCC4)c3C)C2)cc(OC)c1OC (configuration not stated) | inconclusive: 10 µM [cytotoxic, partial curve, poor fit] | –
